{"source": "PubChem BioAssay AID504466", "about": "(National Center for Advancing Translational Sciences (NCATS), 2011)", "note": "The whole screen tested about 330,000 compounds, of which about 4,200 (1.3%) were called active. This list was built around the results that the source calls inconclusive (neither active nor inactive); the mix of calls is not that of the screen. Calls come from the whole dose curve; as a rule, active = well fitted activation curve with a large enough effect; inconclusive = small, poorly fitted or top-dose-only effect; inactive = no such curve, though single readings can be large or run the other way. Potencies beside an inconclusive call are fits to weak or partial responses and may not hold up. Potency is the fitted concentration of half-maximal effect; tags give direction and shape of the fitted curve."}
{"assay": "qHTS screen for small molecules that induce genotoxicity in human embryonic kidney (HEK293T) cells expressing luciferase-tagged ELG1; note: nearly all actives have a fitted effect of over 60% in size", "settings": "HEK293T ELG1-luciferase reporter, luminescence, 16 h; series mostly up to 46 µM", "how_it_was_run": "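Reporter readout depends on ELG1 protein level, which increases with genetic stress. After 16 hr compound exposure at 37 °C, luciferase activity was quantified using ONE-Glo.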"}
{"smiles": "CC(C)(C)CC(=O)Nc1ccc(-c2cn3cccnc3n2)cc1", "Potency": "inconclusive: 18.3 µM [activator, single point]"}
{"smiles": "CSc1nc(N)c(C#N)c(-c2ccccc2Cl)c1C#N", "Potency": "inconclusive: 9.2 µM [activator, partial curve, poor fit]"}
{"smiles": "CCCCCOC(=O)c1cc(=O)[nH]c2ccccc12", "Potency": "inconclusive: 5.17 µM [activator, single point]"}
{"smiles": "C/C(N)=C(/C#N)C(=O)CSc1nnc(-c2ccccc2Br)o1", "Potency": "active: 2.59 µM"}
{"smiles": "CCOC(=O)c1ccc(NC(=O)C(CC)CC)cc1", "Potency": "inconclusive: 20.6 µM [activator, partial curve, poor fit]"}
{"smiles": "Oc1ccccc1-c1nnc(COc2ccc(Cl)cc2Cl)o1", "Potency": "active: 13 µM"}
{"smiles": "Clc1nc(-c2ccccn2)nc2scc(-c3ccccc3)c12", "Potency": "inconclusive: 2.91 µM [activator, partial curve]"}
{"smiles": "COc1cccc(CN2CCNC(=O)C2CC(=O)N(C)CCC2CCOCC2)c1OC", "note": "(stereo not drawn)", "Potency": "inactive"}
{"smiles": "O=C(Nc1nc(-c2ccccc2)cs1)C1CCCO1", "note": "(stereo not drawn)", "Potency": "inconclusive: 20.6 µM [activator, partial curve]"}
{"smiles": "CC(C)N(C(=O)NC(=O)NCC1CCCO1)S(C)(=O)=O", "note": "(stereo not drawn)", "Potency": "inactive"}
{"smiles": "CCOc1ccc(-c2c(C(=O)N/N=C(\\C)c3cccnc3)nnn2-c2nonc2N)cc1", "Potency": "inconclusive: 32.6 µM [activator, partial curve, poor fit]"}
{"smiles": "Cc1cc(C)cc(N2CC(C(=O)OCC(=O)Nc3cc(C)on3)CC2=O)c1", "note": "(stereo not drawn)", "Potency": "inactive"}
{"smiles": "O=C(CSc1nnnn1C1CCCCC1)Nc1cccc(NC(=O)c2ccco2)c1", "Potency": "inactive"}
{"smiles": "Cc1ccc(NC(=O)c2oc3ccccc3c2NC(=O)C2CCCO2)cc1C", "note": "(stereo not drawn)", "Potency": "inactive"}
{"smiles": "Cc1cccc(N/C=C/C(=O)c2cccs2)c1C", "Potency": "active: 1.84 µM"}
{"smiles": "COc1ccc(/C=C2\\SC(=O)N(CCNC(=O)C3CC4C=CC3C4)C2=O)cc1", "note": "(stereo not drawn)", "Potency": "inconclusive: 2.31 µM [activator, full curve]"}
{"smiles": "Oc1ccccc1/C=C/c1noc(-c2ccccc2O)n1", "Potency": "active: 5.8 µM"}
{"smiles": "CCOC(=O)c1cn2ccc(C)cc2n1", "Potency": "inconclusive: 18.3 µM [activator, partial curve, poor fit]"}
{"smiles": "O=C(CSc1nnc(C2CCCCC2)o1)Nc1ccccc1Cl", "Potency": "inconclusive: 9.2 µM [activator, partial curve]"}
{"smiles": "O=C(NCc1ccc(N2CCCC2=O)cc1)Nc1cccc(Cl)c1", "Potency": "inactive"}
{"smiles": "Cc1cc(C)n2nc(C(=O)OCC(=O)c3ccccc3)nc2n1", "Potency": "inactive"}
{"smiles": "Cn1c(C(=O)NC2CCCCC2)cc2c(=O)n3ccccc3nc21", "Potency": "inconclusive: 16.4 µM [activator, partial curve, poor fit]"}
{"smiles": "COC(=O)CNS(=O)(=O)c1ccc(Cc2ccc(S(=O)(=O)NCC(=O)OC)cc2)cc1", "Potency": "inconclusive: 2.59 µM [activator, partial curve]"}
{"smiles": "O=C(COc1cccnc1[N+](=O)[O-])N1CCN(S(=O)(=O)c2ccc3ccccc3c2)CC1", "Potency": "inactive"}
{"smiles": "COc1ccc(-c2csc(N(CCCN(C)C)C(=O)c3ccccc3F)n2)cc1", "Potency": "inactive"}
{"smiles": "O=C(/N=C1\\NC(=O)C(F)(C(F)(F)F)S1)NC1CCCCC1", "note": "(stereo not drawn)", "Potency": "inactive"}
{"smiles": "CC(=O)N=C(N)Sc1nc2ccccc2[nH]1", "Potency": "inconclusive: 18.4 µM [activator, partial curve]"}
{"smiles": "N#Cc1cc(-c2ccccc2)nn1-c1ccccc1", "Potency": "inconclusive: 20.6 µM [activator, partial curve, poor fit]"}
{"smiles": "COc1ccc2oc(C(=O)OCc3nnc(-c4ccccc4)o3)c(C)c2c1", "Potency": "inconclusive: 16.4 µM [activator, partial curve, poor fit]"}
{"smiles": "c1ccc2c(-c3nc(-c4ccncc4)no3)cccc2c1", "Potency": "inconclusive: 20.6 µM [activator, single point]"}
{"smiles": "CC1CCN(c2oc(-c3cccc4ccccc34)nc2C#N)CC1", "Potency": "inconclusive: 20.6 µM [activator, partial curve, poor fit]"}
{"smiles": "Nc1ccc2nc(SCc3ccccc3F)sc2c1", "Potency": "inconclusive: 16.4 µM [activator, partial curve]"}
{"smiles": "Cc1sc(N/N=C/c2cccs2)nc1-c1ccccc1", "Potency": "inconclusive: 20.6 µM [activator, partial curve, poor fit]"}
{"smiles": "COc1nc(Nc2ccc(C(C)C)cc2)nc(OC)n1", "Potency": "inactive"}
{"smiles": "O=C(NCc1ccccn1)Nc1cccc(NC(=O)NCc2ccccn2)c1", "Potency": "inconclusive: 25.9 µM [activator, partial curve, poor fit]"}
{"smiles": "NS(=O)(=O)c1ccc(CNc2ccc3ccccc3n2)cc1", "Potency": "inconclusive: 18.3 µM [activator, partial curve, poor fit]"}
{"smiles": "CCOC(=O)/C=c1\\s/c(=C\\c2ccc(C(=O)OC)cc2)c(=O)n1CC(=O)Nc1ccccc1", "Potency": "inconclusive: 29.1 µM [activator, single point]"}
{"smiles": "Cc1cccc(-n2c(C)cc(/C=N/NC(=O)c3ccc(CN4CCOCC4)cc3)c2C)c1", "Potency": "inconclusive: 16.4 µM [activator, partial curve]"}
{"smiles": "N#C/C(=C/c1ccc(Br)o1)C(N)=S", "Potency": "inconclusive: 29.1 µM [activator, partial curve, poor fit]"}
{"smiles": "Cc1ccsc1/C=N/NC(=O)c1cc(-c2ccncc2)nc2ccccc12", "Potency": "inactive"}
{"smiles": "O=C(COc1ccc([N+](=O)[O-])cc1Cl)N1CCc2ccccc21", "Potency": "inconclusive: 13 µM [activator, partial curve, poor fit]"}
{"smiles": "CC1CCN(C(=O)Cn2cnc3c(cnn3C(C)(C)C)c2=O)CC1", "Potency": "inconclusive: 14.6 µM [activator, partial curve, poor fit]"}
{"smiles": "C/C(=N\\Nc1nc2ccccc2[nH]1)c1ccc(C)o1", "Potency": "inconclusive: 16.4 µM [activator, partial curve, poor fit]"}
{"smiles": "Cc1nnc(NC(=O)c2ccc3ccccc3n2)s1", "Potency": "inconclusive: 20.6 µM [activator, partial curve]"}
{"smiles": "CC(=O)N(CN1C(=O)c2ccccc2C1=O)c1cccc(C)c1", "Potency": "inactive"}
{"smiles": "COc1cccc(C2C(C(N)=O)=C(C)Nc3nc(-c4ccccc4Cl)nn32)c1", "note": "(stereo not drawn)", "Potency": "active: 18.4 µM"}
{"smiles": "CCC(C)(C)NC(=O)/C=C/c1cc(OC)c(OC)c(S(=O)(=O)N2CCc3ccccc32)c1", "Potency": "inconclusive: 29.1 µM [activator, partial curve, poor fit]"}
{"smiles": "C=CCN1CCN(C(=O)CCCc2ccccc2)CC1", "Potency": "inconclusive: 0.501 µM [activator, partial curve, poor fit]"}
{"smiles": "O=C(CSc1ncnc2ccccc12)c1ccc2c(c1)OCCO2", "Potency": "inconclusive: 20.6 µM [activator, partial curve, poor fit]"}
{"smiles": "CC(NC(=O)CSc1ncn[nH]1)c1ccc(Cl)cc1Cl", "note": "(stereo not drawn)", "Potency": "inactive"}
{"smiles": "CCCc1nc2oc(C(=O)c3ccccc3)c(N)c2c2c1COC(C)(C)C2", "Potency": "inactive"}
{"smiles": "CN(C)Cc1c(-c2ccc(Cl)cc2)nc2ccccn12", "Potency": "inconclusive: 13 µM [activator, partial curve]"}
{"smiles": "COc1cccc(C(=O)NCC(=O)N2CCC(C)CC2)c1", "Potency": "inconclusive: 9.2 µM [activator, partial curve, poor fit]"}
{"smiles": "O=C(Nc1ccccc1C(=O)NC(Cc1ccccc1)C(=O)NC1CCCCC1)c1ccccc1", "note": "(stereo not drawn)", "Potency": "inactive"}
{"smiles": "Cc1cc(S(=O)(=O)Nc2ccc3c(c2)n(C)c(=O)n3C)ccc1F", "Potency": "inconclusive: 20.6 µM [activator, single point]"}
{"smiles": "Cc1nnc2sc(-c3ccc(N(C)C)cc3)nn2c1=O", "Potency": "active: 16.4 µM"}
{"smiles": "CCc1ccc(NC(=O)c2cc(C)on2)cc1", "Potency": "inconclusive: 2.59 µM [activator, partial curve]"}
{"smiles": "Cc1cc(Cl)ccc1NC(=S)N1CCN(C(=O)c2ccco2)CC1", "Potency": "inactive"}
{"smiles": "COc1ccc(-c2csc(Nc3ncccc3C)n2)cc1", "Potency": "inconclusive: 2.91 µM [activator, partial curve]"}
{"smiles": "CC(C)CC(=O)NC1(C(F)(F)F)C(=O)N(CC(C)C)C2=C1C(=O)CC(C)(C)C2", "note": "(stereo not drawn)", "Potency": "inactive"}
{"smiles": "Cc1cccc(NC(=O)C(=O)NCc2ccccn2)c1", "Potency": "inconclusive: 20.6 µM [activator, partial curve, poor fit]"}
{"smiles": "Cc1cccc(C(=O)O/N=C(\\N)c2cccc([N+](=O)[O-])c2)c1", "Potency": "inconclusive: 11.6 µM [activator, partial curve, poor fit]"}
{"smiles": "COc1ccc(-c2nnc(NC(=O)C3CCCO3)s2)cc1", "note": "(stereo not drawn)", "Potency": "inconclusive: 16.4 µM [activator, partial curve]"}
{"smiles": "O=C1c2oc3ccc(Cl)cc3c(=O)c2C(c2cccnc2)N1Cc1ccco1", "note": "(stereo not drawn)", "Potency": "inactive"}
{"smiles": "CCOC(=O)N/C(N)=N/c1nc2ccccc2s1", "Potency": "active: 4.11 µM"}
{"smiles": "Cc1noc(/C=C/Nc2ccc(F)cc2F)c1[N+](=O)[O-]", "Potency": "active: 16.4 µM"}
{"smiles": "CN1C(=O)NC(c2ccccc2)C2=C1CN(c1cccc(C(F)(F)F)c1)C2=O", "note": "(stereo not drawn)", "Potency": "inactive"}
{"smiles": "Cc1c2c(nc3ccccc13)CCC(C(C)(C)C)C2", "note": "(stereo not drawn)", "Potency": "inactive"}
{"smiles": "COc1c(C)cccc1C(=O)Nc1ccc(CN2CCOCC2)cc1", "Potency": "inconclusive: 7.31 µM [activator, partial curve, poor fit]"}
{"smiles": "O=C(Nc1ccc(F)cc1F)c1ccc2c(c1)OCCO2", "Potency": "inconclusive: 3.98 µM [activator, partial curve, poor fit]"}
{"smiles": "CCN(CCO)c1nc(N2CCCCC2)c2cnn(C)c2n1", "Potency": "inactive"}
{"smiles": "Cc1ccc(SCc2nc(-c3ccccn3)no2)cc1", "Potency": "inconclusive: 18.4 µM [activator, partial curve]"}
{"smiles": "CCOC(=O)c1c(C)[nH]c(C(=O)OCC(=O)Nc2cc(C)c(Cl)cc2OC)c1C", "Potency": "inconclusive: 20.6 µM [activator, single point]"}
